Whole data set: some 33,000 sequences, median “E-score (-0.5 to 0.5)” near -0.011, cut for the highest 2% near 0.28. The list shows a part of the results.
Target: T1, Gcr1 (UniProt P07261)
T1 sequence: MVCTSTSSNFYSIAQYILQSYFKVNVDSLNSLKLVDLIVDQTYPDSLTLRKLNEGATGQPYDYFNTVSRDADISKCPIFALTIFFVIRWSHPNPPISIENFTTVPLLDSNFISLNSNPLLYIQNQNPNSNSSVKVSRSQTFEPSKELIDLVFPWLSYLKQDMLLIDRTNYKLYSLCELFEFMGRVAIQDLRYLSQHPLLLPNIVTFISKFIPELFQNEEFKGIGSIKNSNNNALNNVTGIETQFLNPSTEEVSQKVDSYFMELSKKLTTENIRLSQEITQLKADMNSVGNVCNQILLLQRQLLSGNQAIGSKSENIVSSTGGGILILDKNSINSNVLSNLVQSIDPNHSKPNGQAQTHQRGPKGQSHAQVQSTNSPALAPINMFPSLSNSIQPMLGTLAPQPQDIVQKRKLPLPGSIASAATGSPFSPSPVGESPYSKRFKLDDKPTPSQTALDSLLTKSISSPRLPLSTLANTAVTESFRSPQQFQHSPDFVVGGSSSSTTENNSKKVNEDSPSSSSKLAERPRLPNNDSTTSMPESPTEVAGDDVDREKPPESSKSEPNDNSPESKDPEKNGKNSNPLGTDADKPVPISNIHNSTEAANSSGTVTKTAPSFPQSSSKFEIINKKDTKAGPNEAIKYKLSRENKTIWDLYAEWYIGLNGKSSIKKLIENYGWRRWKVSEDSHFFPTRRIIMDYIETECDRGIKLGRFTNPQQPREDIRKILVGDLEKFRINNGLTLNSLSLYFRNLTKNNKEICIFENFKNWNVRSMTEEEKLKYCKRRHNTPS
Assay: PBM E-score (8-mer binding enrichment) (E-score (-0.5 to 0.5)); higher = stronger / more preferred TF binding; most listed sequences are background and not binding sites
Details: protein concentration: 100 nM; construct: GST-full length
Experimental: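 Universal 'all 10-mer' protein binding microarrays (Agilent AMADID 015681) probed with GST-tagged S. cerevisiae TFs (full-length or DBD) made by in vitro transcription/translation (PURExpress), about 100-200 nM. Bound TF was detected with fluorescent anti-GST. Each ungapped 8-mer (which stands for itself and its reverse complement) is scored by the PBM enrichment score (E-score), a modified Wilcoxon-Mann-Whitney statistic from -0.5 to +0.5, computed with the Universal PBM Analysis Suite. Scale: above 0.35 generally sequence-specific binding.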

| Sequence | PBM E-score |
| --- | --- |
| AGACAAAC | -0.154 |
| CTGCACTC | -0.185 |
| AGACCCCG | -0.0624 |
| AGAGCCAT | -0.0751 |
| GCCAGTCC | -0.0339 |
| AAATTTGG | 0.301 |
| ATAAGCGC | -0.158 |
| ATGAGTCC | 0.039 |
| CAGTTCCG | 0.00837 |
| GATCGAGC | -0.116 |
| GACCCCTA | 0.0124 |
| ACTGTTTC | -0.0198 |
| ACCTATCT | 0.0198 |
| AGCCCGAC | -0.197 |
| CGCGGCAG | 0.0485 |
| AATGAGGG | -0.0211 |
| GACAAAGC | 0.0944 |
| CTTGCACA | 0.0305 |
| CCCACGTC | -0.321 |
| CACACAGA | -0.069 |
| ATCGACAG | 0.0501 |
| GTTGTCTA | -0.117 |
| ACGCGTAT | 0.244 |
| GGAGTAGA | 0.0945 |

| Sequence | PBM E-score |
| --- | --- |
| ACCTGGAT | 0.0846 |
| TATCGATA | -0.0551 |
| AGCCTAAG | -0.128 |
| CTTGTCGA | -0.0881 |
| CCAAGACG | 0.00442 |
| ACTGTCCA | -0.241 |
| CGTCTAAG | 0.171 |
| AACCTATA | 0.249 |
| AGCTGGTC | -0.205 |
| CTAGGGGA | 0.0176 |
| CAGTCACA | -0.101 |
| AATCTCAT | 0.0612 |
| ACAACGAG | -0.124 |
| ATGCGGTA | 0.123 |
| TATTACAA | 0.0504 |
| AAATGTCG | 0.0435 |
| AGCCAAAT | 0.107 |
| CCGTCTGC | -0.189 |
| CCATAACC | 0.038 |
| GACACTGC | -0.151 |
| CCAAACTA | -0.0224 |
| GAGCTGCC | 0.187 |
| CGGAAAGA | 0.125 |
| AACGAACT | -0.169 |

| Sequence | PBM E-score |
| --- | --- |
| TCGTCGCA | -0.0534 |
| CTGGTGTC | 0.0745 |
| AAGGAGCA | 0.0725 |
| CACAATCC | -0.0748 |
| CTCGACAG | -0.108 |
| ATTTTTAG | 0.0467 |
| ACTCACGA | -0.0437 |
| AGCAACGG | 0.0877 |
| AGCAATGA | -0.223 |
| GGAGTTCA | -0.218 |
| TGATCACA | 0.0281 |
| ACGATAGT | -0.0972 |
| CTGGGGGC | 0.0551 |
| ATGAGGCG | -0.136 |
| ATCGGTTG | 0.0167 |
| AGCCAGGC | -0.14 |
| CGGCAATA | -0.0929 |
| TAGAACTA | -0.242 |
| CGAATTCA | 0.0351 |
| CTGGATCA | -0.0687 |
| AAATGGCG | 0.226 |
| CCTACGTA | -0.0382 |
| GGGTTACA | -0.021 |
| ACGTATTA | 0.126 |

| Sequence | PBM E-score |
| --- | --- |
| CACTCGTA | -0.0543 |
| TCCGCTCA | 0.165 |
| ATTGAAAC | 0.143 |
| GGAATTGA | 0.0304 |
| ACTAATGA | -0.0271 |
| ACGTCCAT | -0.0703 |
| GAGGGTAC | -0.2 |
| AGGTGATC | -0.0403 |
| AGCCGGTG | 0.142 |
| CTCGCAGA | -0.01 |
| ATCCTACC | -0.00286 |
| ACTTAGAG | 0.16 |
| CGGACTAC | -0.0461 |
| CAGCAGGC | 0.0382 |
| CGCGAAGC | 0.12 |
| CGATCACG | -0.15 |
| CGGCCACG | -0.0335 |
| ACAGTCTC | -0.111 |
| AGCGCAGG | -0.206 |
| CAGGATTC | 0.249 |
| GCACCTTA | 0.106 |
| ATTACTGG | 0.362 |

From the supplement of paper PMC3334620
